Laboratory results from patent US20200362003A1 (Genentech, published 2020).
Each block holds one binder with its values, some of them ahead of it.

Assays:
IL-22 RA1 ECD [1] = target: T1, IL-22 RA1 ECD (Homo sapiens (Human), UniProt Q8N6P7 16-228); assay: plate binding assay on coated IL-22 RA1 ECD, relative to Reference Standard, mean of n = 2; * = estimate of potency
T1 construct: also called IL22-RA1 extracellular domain; IL-22R1
T1 sequence: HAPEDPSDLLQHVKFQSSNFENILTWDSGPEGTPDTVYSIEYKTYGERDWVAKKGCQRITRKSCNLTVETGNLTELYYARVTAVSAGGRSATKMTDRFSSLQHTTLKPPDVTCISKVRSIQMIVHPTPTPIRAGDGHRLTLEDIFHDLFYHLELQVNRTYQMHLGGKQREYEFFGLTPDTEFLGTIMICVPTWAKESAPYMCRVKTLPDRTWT
Experimental: (§1) The IL-22 Fc fusion protein potency assay measures the ability of IL-22 Fc fusion protein to bind to the IL-22 RA1 ECD. In the assay, varying concentrations of IL-22 Fc fusion protein Reference Standard Batch, control, and samples are added to a 96-well plate coated with IL-22 RA1 ECD. Bound IL-22 Fc fusion protein is detected with goat anti-human IgG-horseradish peroxidase (HRP) antibody and a tetramethylbenzidine substrate solution. The results, expressed in optical density (OD) units, are plotted against IL-22 Fc fusion protein concentrations, and a parallel curve program is used to calculate the measured potency of IL-22 Fc fusion protein sample(s) relative to the Reference Standard Batch.
The presence and level of sialylation is known to have an impact on the interactions of glycoproteins, such as IL-22 (Marchal et al. Biol Chem 382:151-9, 2001). To study the impact of sialic acid on the interaction between IL-22 Fc fusion protein and the IL-22 receptor, IL-22 Fc fusion protein samples from different development batches with varying levels of sialic acid (quantitation limit of assay 3 mol/mol), 0.7, 4.6, 8.1, 12.0, or 15.4 mol sialic acid/mol IL-22 Fc fusion protein, were generated and tested in the binding assay and a cell-based reporter gene assay. The cell-based assay is a reporter gene assay that measures the ability of IL-22 Fc fusion protein to activate luciferase expression in engineered stable colo205 cells, which endogenously express IL-22 receptor. In the engineered stable colo205 cell reporter cell line, binding of a signal transducer and activator of transcription 3 (STAT3), to its DNA response elements in the promoter of the reporter gene induces firefly Luciferase expression. In the assay, colo205 reporter gene-expressing cells were incubated with prepared dilutions of IL-22 Fc fusion protein Reference Standard, Assay Control, and test samples in a 96-well assay plate. After a timed incubation, Luciferase Reagent was added to the wells of the assay plate, and reporter gene activity was measured using a luminescent plate reader. The amount of light emitted in each well of the assay plate is directly proportional to the amount of Luciferase induced by IL-22 Fc fusion protein Reference Standard, Assay Control, and test sample.

[2] = target: T2, IL-22 receptor endogenously expressed on colo205 reporter cells (human, UniProt Q8N6P7 16-574; Q08334 20-325); assay: cell-based or functional assay
T2 sequence 1: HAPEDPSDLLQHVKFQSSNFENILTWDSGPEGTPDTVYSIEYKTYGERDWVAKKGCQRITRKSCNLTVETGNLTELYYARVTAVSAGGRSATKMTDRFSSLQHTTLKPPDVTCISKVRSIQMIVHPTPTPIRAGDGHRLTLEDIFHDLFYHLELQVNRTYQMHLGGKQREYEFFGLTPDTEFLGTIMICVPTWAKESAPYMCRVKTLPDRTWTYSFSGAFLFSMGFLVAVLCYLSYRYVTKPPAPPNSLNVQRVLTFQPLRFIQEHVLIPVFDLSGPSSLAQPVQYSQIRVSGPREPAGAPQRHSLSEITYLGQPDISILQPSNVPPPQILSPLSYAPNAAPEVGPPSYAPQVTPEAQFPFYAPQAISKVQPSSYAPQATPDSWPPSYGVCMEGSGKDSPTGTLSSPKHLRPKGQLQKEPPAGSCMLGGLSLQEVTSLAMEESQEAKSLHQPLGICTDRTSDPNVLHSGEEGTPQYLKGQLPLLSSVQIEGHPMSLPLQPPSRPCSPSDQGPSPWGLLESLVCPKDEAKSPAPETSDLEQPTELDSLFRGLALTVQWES
T2 sequence 2: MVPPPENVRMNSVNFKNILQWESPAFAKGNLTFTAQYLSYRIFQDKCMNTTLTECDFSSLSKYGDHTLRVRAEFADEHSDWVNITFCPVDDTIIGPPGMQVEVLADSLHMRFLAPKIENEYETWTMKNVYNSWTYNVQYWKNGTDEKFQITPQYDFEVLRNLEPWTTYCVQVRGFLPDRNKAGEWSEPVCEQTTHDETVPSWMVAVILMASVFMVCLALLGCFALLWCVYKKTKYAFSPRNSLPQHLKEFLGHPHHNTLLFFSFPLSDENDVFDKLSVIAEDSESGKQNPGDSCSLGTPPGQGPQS

IL-22 RA1 ECD [3] = target: T1, IL-22 RA1 ECD; assay: plate binding assay: IL-22 RA1 ECD coated, bound IL-22 Fc detected with anti-human IgG-HRP; potency relative to Reference Standard Batch by parallel curve analysis
Experimental: as §1

IL-22 RA1 ECD [4] = target: T1, IL-22 RA1 ECD; assay: potency binding assay (OD against concentration) on plate-coated IL-22 RA1 ECD after deglycosylation with PNGase F; upper panel, legend box
Experimental: as §1
(§2) To investigate the role of the underlying glycan structure on binding activity, the same Clinical Batches as above were treated with PNGase F enzyme to remove all N-glycans and analyzed in the potency assay. The potency of the process control sample, prepared from the Reference Standard Batch through the same treatment as the samples excepting PNGase F addition, was different than the potency of the Reference Standard Batch. In addition, differences in molecular size heterogeneity for the process control compared to the Reference Standard Batch were observed. The process control contained more high molecular weight (HMW) forms and less low molecular weight (LMW) forms than the Reference Standard Batch, as measured by size-exclusion ultra-high-performance liquid chromatography (SE-UHPLC).

IL-22 RA1 ECD [5] = target: T1, IL-22 RA1 ECD; assay: potency binding assay (OD against concentration) on plate-coated IL-22 RA1 ECD after deglycosylation with PNGase F; lower panel, legend box
Experimental: as §1
as §2, with “In addition, differences in molecular size heterogeneity for the process control compared to the Reference Standard Batch were observed.” left out

IL-22 RA1 ECD [6] = target: T1, IL-22 RA1 ECD; assay: potency binding assay (OD against concentration) on plate-coated IL-22 RA1 ECD; Reference Standard Batch given the same incubations as the samples without PNGase F; lower panel, legend box
Experimental: as §1
as §2, with “In addition, differences in molecular size heterogeneity for the process control compared to the Reference Standard Batch were observed.” left out

IL-22 RA1 ECD [7] = target: T1, IL-22 RA1 ECD; assay: potency binding assay (OD against concentration) on plate-coated IL-22 RA1 ECD; lower panel, legend box
Experimental: as §1
as §2, with “In addition, differences in molecular size heterogeneity for the process control compared to the Reference Standard Batch were observed.” left out

IL-22 RA1 ECD [8] = target: T1, IL-22 RA1 ECD; assay: potency binding assay (OD against concentration) on plate-coated IL-22 RA1 ECD; upper panel, legend box
Experimental: as §1
as §2, with “In addition, differences in molecular size heterogeneity for the process control compared to the Reference Standard Batch were observed.” left out

B3: IL-22 Fc fusion protein Clinical Batch 3 (Fc fusion)
chain: APISSHCRLDKSNFQQPYITNRTFMLAKEASLADNNTDVRLIGEKLFHGVSMSERCYLMKQVLNFTLEEVLFPQSDRFQPYMQEVVPFLARLSNRLSTCHIEGDDLHIQRNVQKLKDTVKKLGESGEIKAIGELDLLFMSLRNACIRV[human IgG4 Fc with S228P N297G (EU numbers) omitted here]
modifications: N-glycans at Asn21, Asn35, Asn64 and Asn143 of the IL-22 part; 9.3 mol NANA per mol fusion protein (Table 14)
notes: Same polypeptide as m1; differs in glycans
% Relative Potency (IL-22 RA1 ECD [3]): 71%

B5: Deglycosylated IL-22 Fc fusion protein Clinical Batch 4 (Fc fusion)
chain: B3 chain
modifications: all N-glycans removed with PNGase F (glycosylated Asn becomes Asp)
notes: also called deglycosylated Clinical Batch 4
EC50 (IL-22 RA1 ECD [4]): 0.051 µg/mL

B6: Deglycosylated IL-22 Fc fusion protein Reference Standard Batch (Fc fusion)
chain: B3 chain
modifications: all N-glycans removed with PNGase F (the filing notes at paragraph 617 that PNGase F converts the glycosylated asparagine to aspartic acid)
EC50 (IL-22 RA1 ECD [4]): 0.047 µg/mL

B7: IL-22 Fc fusion protein Clinical Batch 2 (Fc fusion)
chain: B3 chain
modifications: N-glycans at Asn21, Asn35, Asn64 and Asn143 of the IL-22 part; 9.0 mol NANA per mol fusion protein (Table 14)
notes: as for B3
% Relative Potency (IL-22 RA1 ECD [3]): 70%

B9: Deglycosylated IL-22 Fc fusion protein Clinical Batch 6 (Fc fusion)
chain: B3 chain
modifications: all N-glycans removed with PNGase F (glycosylated Asn becomes Asp)
notes: also called deglycosylated Clinical Batch 6
EC50 (IL-22 RA1 ECD [5]): 0.046 µg/mL

B12: IL-22 Fc fusion protein Clinical Batch 1 (Fc fusion)
chain: B3 chain
modifications: N-glycans at Asn21, Asn35, Asn64 and Asn143 of the IL-22 part; 8.7 mol NANA per mol fusion protein (Table 14)
notes: differs in glycans
% Relative Potency (IL-22 RA1 ECD [3]): 64%

B14: Deglycosylated IL-22 Fc fusion protein Clinical Batch 5 (Fc fusion)
chain: B3 chain
modifications: all N-glycans removed with PNGase F (glycosylated Asn becomes Asp)
notes: also called deglycosylated Clinical Batch 5
EC50 (IL-22 RA1 ECD [5]): 0.044 µg/mL

B15: Deglycosylated IL-22 Fc fusion protein Clinical Batch 2 (Fc fusion)
chain: B3 chain
modifications: all N-glycans removed with PNGase F (glycosylated Asn becomes Asp)
notes: also called deglycosylated Clinical Batch 2
EC50 (IL-22 RA1 ECD [4]): 0.046 µg/mL

B16: IL-22 Fc fusion protein Reference Standard Batch (Fc fusion)
chain: B3 chain
modifications: N-glycans at Asn21, Asn35, Asn64 and Asn143 of the IL-22 part; 7.8 mol NANA per mol fusion protein (Table 14)
EC50 (IL-22 RA1 ECD [7]): 0.162 µg/mL | EC50 (IL-22 RA1 ECD [8]): 0.167 µg/mL

Continued, values first:

Binding Result (% Relative Potency), Mean (IL-22 RA1 ECD [1]): ~168% | Cell-based Result (% Relative Activity), Mean; STAT3 luciferase reporter gene assay in colo205 cells [2]: 148 % Relative Activity
B1: IL-22 Fc fusion protein SA Variant 0 Low mol/mol (Fc fusion)
chain: B3 chain
modifications: N-glycans on the IL-22 part, desialylated with sialidase A from SA Variant 4; 0.7 mol sialic acid per mol fusion protein
notes: Sialic acid variant from a development batch; also called SA level 0 low; IL-22 Fc, 0.7 mol/mol SA

Binding Result (% Relative Potency), Mean (IL-22 RA1 ECD [1]): ~30% | Cell-based Result (% Relative Activity), Mean; STAT3 luciferase reporter gene assay in colo205 cells [2]: 39 % Relative Activity
B2: IL-22 Fc fusion protein SA Variant 12 mol/mol (Fc fusion)
chain: B3 chain
modifications: N-glycans on the IL-22 part; 12.0 mol sialic acid per mol fusion protein
notes: Sialic acid variant; also called IL-22 Fc, 12.0 mol/mol SA

Cell-based Result (% Relative Activity), Mean; STAT3 luciferase reporter gene assay in colo205 cells [2]: 121 % Relative Activity
B4: IL-22 Fc fusion protein SA Variant 0 High mol/mol (Fc fusion)
chain: B3 chain
modifications: N-glycans on the IL-22 part, desialylated with sialidase A from SA Variant 15; 0.9 mol sialic acid per mol fusion protein; more tetraantennary and galactosylated glycans than SA Variant 0 Low

Binding Result (% Relative Potency), Mean (IL-22 RA1 ECD [1]): ~18% | Cell-based Result (% Relative Activity), Mean; STAT3 luciferase reporter gene assay in colo205 cells [2]: 26 % Relative Activity
B8: IL-22 Fc fusion protein SA Variant 15 mol/mol (Fc fusion)
chain: B3 chain
modifications: N-glycans on the IL-22 part; 15.4 mol sialic acid per mol fusion protein
notes: Sialic acid variant; also called IL-22 Fc, 15.4 mol/mol SA

EC50 (IL-22 RA1 ECD [6]): 0.089 µg/mL
B10: IL-22 Fc fusion protein process control sample (Fc fusion)
chain: B3 chain
modifications: N-glycans on the IL-22 part; Reference Standard Batch taken through the deglycosylation incubation and purification without PNGase F; glycan composition changed by the treatment
notes: Prepared from m1; held more HMW and less LMW forms than m1 by SE-UHPLC

Cell-based Result (% Relative Activity), Mean; STAT3 luciferase reporter gene assay in colo205 cells [2]: 99 % Relative Activity
B11: IL-22 Fc fusion protein SA Variant 4 mol/mol (Fc fusion)
chain: B3 chain
modifications: N-glycans on the IL-22 part; 4.6 mol sialic acid per mol fusion protein

Binding Result (% Relative Potency), Mean (IL-22 RA1 ECD [1]): ~54% | Cell-based Result (% Relative Activity), Mean; STAT3 luciferase reporter gene assay in colo205 cells [2]: 67 % Relative Activity
B13: IL-22 Fc fusion protein SA Variant 8 mol/mol (Fc fusion)
chain: B3 chain
modifications: N-glycans on the IL-22 part; 8.1 mol sialic acid per mol fusion protein
notes: Sialic acid variant; also called IL-22 Fc, 8.1 mol/mol SA
